Data as given in the supplement of paper PMC4166925.
± gives the standard deviation of the averaged measurements. The full ranking holds about 33,000 sequences; the median of “E-score (dimensionless, -0.5 to 0.5)” is about -0.046, and the highest 2% start at about 0.36. This is one part of the list.

What follows are sequences tested on T1, SpTbr T-box DNA-binding domain (GST fusion) (assay: PBM E-score of 8-mer (E-score (dimensionless, -0.5 to 0.5)); Tbr is Tbrain of the sea star Patiria miniata (Pm) or the sea urchin Strongylocentrotus purpuratus (Sp); higher = stronger binding preference; most listed sequences are background and not binding sites). Settings: the construct has about 5 more residues each side.
T1 sequence: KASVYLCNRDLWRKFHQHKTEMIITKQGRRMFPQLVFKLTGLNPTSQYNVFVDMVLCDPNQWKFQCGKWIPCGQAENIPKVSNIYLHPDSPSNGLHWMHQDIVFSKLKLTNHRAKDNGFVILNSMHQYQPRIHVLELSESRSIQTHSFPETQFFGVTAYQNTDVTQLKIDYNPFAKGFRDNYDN
Summary of the method: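 Expression of GST-fused Tbr T-box DNA-binding domains, each holding the full T-box plus roughly five flanking residues, was carried out in BL21 E. coli at 20 °C, with purification by glutathione affinity chromatography. Universal Agilent arrays made double-stranded by primer extension were incubated with the protein at 200 nM in PBS (pH 7.5), then scanned and quantified. All ungapped 8-mers were scored from probe intensities, and each received an enrichment E-score from the Universal PBM Analysis Suite, averaged over duplicate arrays.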

Sequence	PBM E-score of 8-mer
CGGTGTTC	-0.0703 ± 0.07
CCATGCTC	-0.0405 ± 0.029
CTCTGTGC	-0.107 ± 0.059
CAAAAGAA	-0.134 ± 0.087
CAAGATTA	-0.105 ± 0.0015
CTTGTCTC	0.0999 ± 0.049
AAAGCCCC	-0.2691 ± 0.001
CAAAGCAG	-0.102 ± 0.032
CGGTATCA	0.0955 ± 0.017
CCAACGGG	-0.0354 ± 0.0071
GACGTCCC	-0.218 ± 0.012
AGAACATG	-0.0968 ± 0.0091
AGGTCGGA	-0.141 ± 0.0084
TGCTTAAA	-0.173 ± 0.02
GCCCTTCA	-0.196 ± 0.039
CATGTATC	0.0485 ± 0.0023
TAAACCAA	-0.0254 ± 0.016
ATTTACTC	-0.0963 ± 0.037
AGCGTAAT	-0.0418 ± 0.029
CGGCTGCC	-0.0159 ± 0.021
AGGATGTG	0.116 ± 0.074
ACGGGCCG	-0.12 ± 0.11

Sequence	PBM E-score of 8-mer
TCCAGTCA	-0.0542 ± 0.066
GATTTAGC	0.00308 ± 0.088
GCATGACA	0.09 ± 0.029
ATAGACAT	-0.313 ± 0.052
CTTCGGCC	-0.157 ± 0.014
GGAGACCC	-0.29 ± 0.027
GATTGCCA	0.132 ± 0.0054
AACCAAAT	-0.101 ± 0.03
CTGCGTTA	-0.0548 ± 0.086
ATTATGAG	-0.0244 ± 0.034
ATCCACAG	-0.0171 ± 0.029
AGTAGGGG	-0.125 ± 0.01
AGTCTTCA	0.0409 ± 0.02
AACGAGGC	-0.0658 ± 0.071
AAAGTTGT	0.1789 ± 0.00091
GGCTGTGA	0.274 ± 0.0031
GAGCAACC	-0.144 ± 0.084
ATTAGACG	-0.115 ± 0.03
ATTGAATA	-0.0528 ± 0.065
CGAACGGC	0.0622 ± 0.0044
CACTAGGG	-0.191 ± 0.07
GGACACAC	0.0866 ± 0.0081

Sequence	PBM E-score of 8-mer
AGTACAAC	-0.0481 ± 0.064
ACTCAGGG	-0.0222 ± 0.03
CGAGCGCG	0.179 ± 0.038
CCTAGTTC	-0.0342 ± 0.022
CAATGCGG	-0.122 ± 0.075
AAGTATAG	-0.141 ± 0.066
ACTCGTCG	-0.0181 ± 0.081
TATTTTCA	0.0115 ± 0.1
AGCTACCT	-0.202 ± 0.074
TCTGGGAA	-0.16 ± 0.04
ATTGCGAG	0.183 ± 0.0077
AATCGACA	0.192 ± 0.036
GCCACCAA	0.168 ± 0.011
CACACCAA	0.38 ± 0.017
ATGTCATA	-0.202 ± 0.0053
GTTCTAGA	-0.188 ± 0.042
CTGCTCCA	-0.261 ± 0.033
AGCTTTTG	-0.248 ± 0.092
TCGTCGAA	0.136 ± 0.029
GGTCTCCA	-0.178 ± 0.031
GAGTCTTA	-0.0602 ± 0.044
AATTACGA	-0.074 ± 0.11

Sequence	PBM E-score of 8-mer
CCTTGACG	0.119 ± 0.013
AGAGCGTG	0.191 ± 0.021
CCATGACC	-0.197 ± 0.032
AGCCGCGC	0.156 ± 0.015
CACAAGGG	0.0548 ± 0.046
AGGTGGCC	0.075 ± 0.0048
AGTGGGAC	0.0381 ± 0.061
ATAAGTAG	0.0492 ± 0.11
ACACAGGT	0.0709 ± 0.053
CTTATCTA	-0.176 ± 0.036
ATGCGAAA	0.08 ± 0.092
CCTTCCAG	-0.129 ± 0.041
GGCCCGCA	-0.148 ± 0.051
AGATGCCA	-0.0466 ± 0.0036
AATGAAGA	-0.0655 ± 0.0055
TATGATCA	-0.136 ± 0.022
AGAGGTAA	-0.158 ± 0.039
GATCCGAA	-0.149 ± 0.027
ATGGAACA	-0.149 ± 0.023
AGGGAAAC	-0.168 ± 0.048
